Reference: PMC4336329 (PLoS ONE, 2015)
Out of some 310,000 compounds screened, about 2,200 (0.71%) showed an effect of 50% or more. Effects have a minus sign here. Some of the results follow.

molecular target: human ether-à-go-go-related gene (hERG) potassium channel (human, UniProt Q12809); experiment: primary screen, population patch clamp on CHO cells stably expressing hERG
Sequence (Q12809 whole entry, looked up): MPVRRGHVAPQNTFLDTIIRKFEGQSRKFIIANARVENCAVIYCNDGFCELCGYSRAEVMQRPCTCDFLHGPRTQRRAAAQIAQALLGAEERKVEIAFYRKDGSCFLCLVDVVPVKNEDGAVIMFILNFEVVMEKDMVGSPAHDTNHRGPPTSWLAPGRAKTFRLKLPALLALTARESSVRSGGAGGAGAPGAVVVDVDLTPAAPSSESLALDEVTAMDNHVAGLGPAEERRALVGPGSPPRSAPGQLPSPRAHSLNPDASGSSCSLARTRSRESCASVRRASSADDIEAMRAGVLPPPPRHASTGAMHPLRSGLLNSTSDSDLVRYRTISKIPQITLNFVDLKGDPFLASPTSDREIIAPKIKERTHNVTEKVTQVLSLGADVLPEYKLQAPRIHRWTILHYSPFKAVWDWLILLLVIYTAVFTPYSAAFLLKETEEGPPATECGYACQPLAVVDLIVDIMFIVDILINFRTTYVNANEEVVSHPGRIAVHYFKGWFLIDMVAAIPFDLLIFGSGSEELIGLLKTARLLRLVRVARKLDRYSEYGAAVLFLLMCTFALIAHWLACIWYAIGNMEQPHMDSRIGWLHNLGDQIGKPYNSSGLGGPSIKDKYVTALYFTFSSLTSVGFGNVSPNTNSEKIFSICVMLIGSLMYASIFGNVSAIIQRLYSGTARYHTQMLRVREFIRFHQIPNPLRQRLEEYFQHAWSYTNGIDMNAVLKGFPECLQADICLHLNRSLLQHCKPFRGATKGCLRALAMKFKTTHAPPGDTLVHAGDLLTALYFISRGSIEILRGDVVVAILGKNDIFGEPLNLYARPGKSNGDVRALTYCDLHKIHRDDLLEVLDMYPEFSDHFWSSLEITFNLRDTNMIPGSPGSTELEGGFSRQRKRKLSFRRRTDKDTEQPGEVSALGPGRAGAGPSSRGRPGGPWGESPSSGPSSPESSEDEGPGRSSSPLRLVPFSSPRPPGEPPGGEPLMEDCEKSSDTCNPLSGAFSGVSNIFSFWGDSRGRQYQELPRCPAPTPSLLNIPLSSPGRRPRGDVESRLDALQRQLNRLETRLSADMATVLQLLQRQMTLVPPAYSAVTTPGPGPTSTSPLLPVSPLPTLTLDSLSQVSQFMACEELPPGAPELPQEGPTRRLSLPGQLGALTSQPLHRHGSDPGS

Row | Compound | hERG current change (%, negative = inhibition) at 1uM
1 | CC(C)(C)NC(=O)CSCc1c(Cl)cccc1Cl | -8.75%
2 | N#CCCN(Cc1ccccc1)C(=S)Nc1ccc(F)cc1 | 12.8%
3 | Cc1nn(Cc2ccccc2)c(C)c1C=C1C(=O)NC(=O)NC1=O | 10.3%
4 | NC1=NC(=O)C(Cc2cccc(Cl)c2Cl)S1 (stereo not drawn) | 16.3%
5 | CCCNc1nc2c(c(=O)n(C)c(=O)n2C)n1CCCc1ccccc1 | 3.11%
6 | COc1ccc(OC)c(S(=O)(=O)N2CCC(C(=O)N3CCOCC3)CC2)c1 | 18.9%
7 | CSc1nsc(SCC(=O)Nc2ccc(C(=O)O)cc2)n1 | 9.92%
8 | CN(CC1CCCN(CCc2cccc(C(F)(F)F)c2)C1)C(=O)c1ccco1 (stereo not drawn) | -38.3%
9 | Cc1nnc(N2C(=O)c3ccc(Br)cc3C2=O)s1 | 13.7%
10 | CCCOc1ccc(N2C(=O)C/C(=C\c3ccccc3)C2=O)cc1 | 15.7%
11 | COc1ccc(O)c(/C=N/NC(=O)c2cccc(N3CCCC3=O)c2)c1 | 8.99%
12 | COc1ccccc1NC(=O)CN1CCN(C(=O)C2CCCO2)CC1 (stereo not drawn) | 14.1%
13 | Cc1ccc(-c2noc(-c3ccccc3C(=O)NCC3CCCO3)n2)cc1 (stereo not drawn) | 8.44%
14 | COc1ccccc1Oc1ccc2c(c1)C(=O)N(c1ccccc1)C2=O | 1.54%
15 | COc1cc(S(=O)(=O)Nc2cccc(C)c2)ccc1NC(=O)c1cccnc1 | 17.2%
16 | O=C(Cn1c2[n+](c3ccc(C(F)(F)F)cc31)CCCCC2)Nc1ccc(Br)cc1.[Cl-] | 20.4%
17 | COc1ccc(C(C(=O)NC2CCCCC2)N2CCC3(CC2)OCCO3)cc1 (stereo not drawn) | 3.92%
18 | O=c1[nH]cnc2c([N+](=O)[O-])cccc12 | 7.63%
19 | CC(=O)Nc1ccc(OS(=O)(=O)c2ccc(C)cc2C)cc1 | 5.66%
20 | Cc1cccc(NC(=O)C2CC(=O)OC23CCCCC3)c1 (stereo not drawn) | 2.56%
21 | CC(C)CCNC(=O)CCCC1=NS(=O)(=O)c2ccccc2N1 | 3.78%
22 | Cc1cc(NC(=O)CSc2nc3cc(C(=O)NCCCOC(C)C)ccc3c(=O)n2Cc2ccco2)no1 | 10.4%
23 | Cc1ccsc1/C=C1\C(=O)NC(=S)N(C)C1=O | 14.8%

Row | Compound | hERG current change (%, negative = inhibition) at 1uM
24 | Cc1nnc(Nc2ccc3c(c2)OCO3)c2ccccc12 | 11.8%
25 | CN(C)CCNC(=O)/C(=C/c1ccc(-c2cccc(Cl)c2)o1)NC(=O)c1ccccc1 | -31.4%
26 | CNC(=O)O/N=C(\N)Cc1csc2ccc(Cl)cc12 | 5.45%
27 | O=C(Cc1cccs1)NNC(=S)NCc1ccc(Cl)cc1 | 11.5%
28 | COC(=O)c1c(NS(=O)(=O)c2ccc3ccccc3c2)sc2c1CCCC2 | 1.93%
29 | CCN(CC)CCNC(=O)Cc1nn(Cc2ccccc2)c(=O)c2ccccc12 | -9.36%
30 | CC(=O)Cn1nnc(-c2ccc(C(F)(F)F)cc2)n1 | 0.918%
31 | CCOc1ncccc1C(=O)OCc1cccc([N+](=O)[O-])c1 | 13%
32 | Cc1cc(C)cc(C(=O)NCCCN2CCOCC2)c1 | 17.7%
33 | COC(=O)c1ccc(C23CC4(C2)[C@H](CN(CC2CCCCC2)[C@@H]4c2ccccc2)C3c2ccc(Cl)nc2)cc1 (stereo partly drawn) | 15.8%
34 | CC(OC(=O)c1ccc2c(=O)n3c(nc2c1)CCC3)C(=O)NC1CCCCC1C (stereo not drawn) | 13.8%
35 | FC(F)(F)c1nnc(-c2ccccc2)nc1Sc1ccccc1 | 7.7%
36 | Cc1c(C(=O)OC(C)C)[nH]c2c1C(=O)CC(C)(C)C2 | 7.48%
37 | CCS(=O)(=O)C1=NN2C(=N)/C(=C\c3ccc(OC(=O)c4ccco4)cc3)C(=O)N=C2S1 | 19.4%
38 | COc1ccc(C(=O)c2ccc(Cl)cc2)c2ccccc12 | 6.46%
39 | CCOCCCNC(=O)C1CCC(=O)N1CCc1ccccc1 (stereo not drawn) | 15.8%
40 | CNS(=O)(=O)c1ccc(NC(=O)C(CCSC)NC(N)=O)cc1 (stereo not drawn) | 15.1%
41 | C/C(=N\NS(=O)(=O)c1cccc([N+](=O)[O-])c1)c1cccnc1 | 7.3%
42 | CCOC(=O)C1=C(C)NC2=C(C(=O)CC(C)(C)C2)C1c1ccc(N(C)C)cc1 (stereo not drawn) | 12.6%
43 | CC(NC(=O)c1ccco1)C(c1cccs1)N1CCN(c2ccc(F)cc2)CC1 (stereo not drawn) | 6.94%
44 | CC(C)(C)n1nnnc1C(c1ccc(F)cc1)N(Cc1ccc(F)cc1)Cc1ccco1 (stereo not drawn) | 14.4%
45 | O=C1NC(=S)SC1=C1CCCC1 | 11.8%
46 | CC(C)CC(=O)N=C1SC2CS(=O)(=O)CC2N1Cc1ccccc1 (stereo not drawn) | 11.2%

Row | Compound | hERG current change (%, negative = inhibition) at 1uM
47 | O=C(CCCSc1nc2ccccc2s1)NC1=NCCS1 | 10.8%
48 | Cl.OC(CCN1CCCC1)(c1ccccc1)C1CCCCC1 (stereo not drawn) | 1.02%
49 | COc1ccc(S(=O)(=O)N2CCN(C/C=C/c3ccccc3)CC2)cc1F | 8.5%
50 | CC(C)NC(=S)N1CCN(S(=O)(=O)c2cccc(C(F)(F)F)c2)CC1 | 11.7%
51 | CCOC(=O)N1CCC(=NNC(=O)c2ccccc2F)CC1 | -1.29%
52 | CC1=C(C)CC(C(=O)NCc2ccccc2F)C(C(=O)O)C1 (stereo not drawn) | 15.8%
53 | COc1ccc(NC(=S)N2CCN(S(C)(=O)=O)CC2)cc1OC | 4.18%
54 | Cc1cc(S(=O)(=O)N2CCCC2)ccc1OCC(=O)N1CCC(C(N)=O)CC1 | 20%
55 | CC(=O)O.O=c1/c(=C\c2cccc(O)c2)sc2nc(-c3ccccc3)c(-c3ccccc3)n12 | 13.9%
56 | CCOC(=O)c1c(N2C(=O)Nc3ccccc3N2O)sc2c1CCCCC2 | 0.728%
57 | CCOC(=O)c1cccc(NC(=O)CSc2nnc(C3CCCCC3)n2C)c1 | 1.33%
58 | CC(OC(=O)/C=C/c1ccccc1Cl)C(=O)NC1CCCCC1C (stereo not drawn) | 0.403%
59 | O=[N+]([O-])c1cccc(S(=O)(=O)Nc2ccc(Cc3ccncc3)cc2)c1 | -4.55%
60 | CN1CCc2nc(NC(=O)c3cccc(OC(F)F)c3)sc2C1 | -1.52%
61 | COc1ccc(N(CC(=O)Nc2cc(OC)ccc2OC)S(=O)(=O)c2c(C)nn(C)c2C)cc1 | 12.7%
62 | O=C(c1cccc(F)c1)n1nnc2ccccc21 | 17.4%
63 | O=C(CSc1ncn[nH]1)c1ccc2c(c1)OCCO2 | 2.66%
64 | Cc1c(CCO)c(=O)n(C)n1C(=O)c1ccc(F)cc1 | 13.2%
65 | COc1ccc(C2=NO[C@H]3C[C@](C(=O)NC(C)C)(S(=O)(=O)c4ccccc4)C[C@@H]23)cc1 | 12%
66 | O=C(NNC(=S)NC(=O)c1cn(-c2ccccc2)nc1-c1ccccc1)c1ccncc1 | 8.41%
67 | O=C(CSc1nc2ccccc2[nH]1)c1ccc(Cl)s1 | 14.5%
68 | COc1ccc(Oc2ncc(CN3CCN(c4ccccc4)CC3)s2)cc1 | 10.3%
69 | C/C(Cl)=C/CN1C(=O)C2C3C=CC(C3)C2C1=O (stereo not drawn) | -3.44%

Row | Compound | hERG current change (%, negative = inhibition) at 1uM
70 | COC(=O)[C@H](C)NC(=O)N1CCC(Cc2ccccc2)CC1 | 0.436%
71 | CC1CCc2cc(F)ccc2N1C(=O)c1cccnc1 (stereo not drawn) | 19.6%
72 | CC(=O)N1CCC2(CC1)C(C#N)=C(N)Oc1n[nH]c(C)c12 | 11%
73 | COc1ccccc1NC(=O)CN1CCN(CC(=O)Nc2ccccc2Cl)CC1 | 7.43%
74 | COc1ccc(O)c(C(=O)c2cnn(-c3ccc(Cl)cc3)c2)c1 | 16%
75 | Cc1cc(C)nc(NS(=O)(=O)c2ccc(NC(=O)c3cc(-c4ccccc4)nc4ccccc34)cc2)n1 | 0.933%
76 | O=c1oc2ccccc2c(NC2CCCCC2)c1NS(=O)(=O)c1ccc(F)cc1 | 2.77%
77 | Cn1c(=NC(=O)C2CC2)sc2cc(F)cc(F)c21 | 10.1%
78 | CC(C)(C)OC(=O)N1CCN(C(=O)c2[nH]cnc2C(=O)NCC(=O)OCc2ccccc2)CC1 | 7.21%
79 | Cc1ccc(CNC(=S)NC2CCC(C(C)(C)C)CC2)cc1 (stereo not drawn) | 15.4%
80 | O=C1CCCN2N=C(SCC(=O)Nc3nc4ccccc4s3)SC2=N1 | 5.01%
81 | CCOC(=O)c1ccc(NC(=O)CCS(=O)(=O)c2cccc3nonc23)cc1 | 9.65%
82 | Cc1ccc(S(=O)(=O)N2CCN(Cc3nc4ccccc4n3C)CC2)cc1 | -0.98%
83 | COCc1cnc(C)nc1N | 10.4%
84 | O=C(c1ccc(N2CCN(CCO)CC2)nc1)N1CCOCC1 | 8.82%
85 | COc1ccc(S(=O)(=O)N2CCN(C)CC2c2ccccc2)cc1.Cl (stereo not drawn) | 9.94%
86 | COC(=O)c1c(NC(=O)COC(=O)c2ccc(Cl)nc2)sc(C)c1C | 15.9%
87 | O=C(O)C1C2C=CC(C2)C1C(=O)NCCc1cccc(Cl)c1 (stereo not drawn) | 10.9%
88 | CCOC(=O)N1CCN(C(=O)c2c[nH]c3ccc(S(=O)(=O)N(C)c4ccccc4C)cc3c2=O)CC1 | 5.17%
89 | c1ccc(CSc2ccc(-c3cccnc3)nn2)cc1 | 1.62%
90 | CCCn1c(SCC(=O)NCC2CCCO2)nc2c1c(=O)n(C)c(=O)n2C (stereo not drawn) | 6.61%
